Source: the supplement of paper PMC4967469
The IC50 comes from the fitted curve, where viability falls to half of the control; fits outside the tested doses are given as limits. The AUC spans the tested range (256-fold, ending at the top dose) of the same fit; values near 1 show little effect.

Compound: COc1ccc(C2=N[C@@H](c3ccc(Cl)cc3)[C@@H](c3ccc(Cl)cc3)N2C(=O)N2CCNC(=O)C2)c(OC(C)C)c1 [Nutlin-3a]
Assay: Viability of human cancer cell lines after 72 h of drug (GDSC screen)
Method: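 Human cancer cell lines in 384-well plates, medium with 10% serum, drug for 72 h over a 256-fold dose range (nine 2-fold or five 4-fold steps up to the top dose). Adherent lines were fixed and stained with the nucleic acid dye Syto60, suspension lines read with resazurin; signal relative to control wells, capped at 0 and 100%. One two-parameter sigmoid per drug and line, fitted in a mixed model over all curves with the slope shared within a line.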

Cell Line	AUC	IC50 [µM]
G-401 (kidney, adherent, top dose 8 µM)	0.791	3.99
G-402 (soft tissue, adherent, top dose 8 µM)	0.786	4.75
GA-10 (Burkitt lymphoma, suspension, top dose 8 µM)	0.988	> 8
GAK (melanoma, adherent, top dose 8 µM)	0.949	> 8
GAMG (glioma, adherent, top dose 8 µM)	0.982	> 8
GB-1 (glioma, adherent, top dose 8 µM)	0.958	> 8
GCIY (stomach, adherent, top dose 8 µM)	0.98	> 8
GDM-1 (acute myeloid leukaemia, suspension, top dose 8 µM)	0.877	7.46
GI-1 (glioma, adherent, top dose 8 µM)	0.964	> 8
GI-ME-N (neuroblastoma, adherent, top dose 8 µM)	0.839	> 8
GMS-10 (glioma, adherent, top dose 8 µM)	0.986	> 8
GOTO (neuroblastoma, adherent, top dose 8 µM)	0.808	4.84
GR-ST (lymphoblastic leukaemia, suspension, top dose 8 µM)	0.914	> 8
GRANTA-519 (B-cell lymphoma, suspension, top dose 8 µM)	0.852	5.25
GT3TKB (stomach, adherent, top dose 4 µM)	0.977	> 4
H4 (glioma, adherent, top dose 8 µM)	0.628	1.12
H9 (lymphoid neoplasm, suspension, top dose 8 µM)	0.992	> 8
H290 (mesothelioma, adherent, top dose 8 µM)	0.799	3.48
H2369 (mesothelioma, adherent, top dose 8 µM)	0.851	6.47
H2373 (mesothelioma, adherent, top dose 8 µM)	0.801	5.14
H2461 (mesothelioma, adherent, top dose 8 µM)	0.981	> 8

Cell Line	AUC	IC50 [µM]
H2591 (mesothelioma, adherent, top dose 4 µM)	0.817	3.15
H2595 (mesothelioma, adherent, top dose 8 µM)	0.954	> 8
H2731 (mesothelioma, adherent, top dose 8 µM)	0.982	> 8
H2795 (mesothelioma, adherent, top dose 8 µM)	0.759	2.76
H2869 (mesothelioma, adherent, top dose 8 µM)	0.908	> 8
H3118 (head and neck, adherent, top dose 8 µM)	0.966	> 8
H3255 (lung adenocarcinoma, adherent, top dose 8 µM)	0.961	> 8
H-EMC-SS (chondrosarcoma, adherent, top dose 8 µM)	0.798	5.18
HA7-RCC (kidney, adherent, top dose 8 µM)	0.705	2.02
HAL-01 (lymphoblastic leukaemia, suspension, top dose 8 µM)	0.829	4.19
HARA (lung squamous cell carcinoma, adherent, top dose 8 µM)	0.963	> 8
HC-1 (hairy cell leukaemia, suspension, top dose 8 µM)	0.907	> 8
HCC38 (breast, adherent, top dose 8 µM)	0.986	> 8
HCC202 (breast, adherent, top dose 8 µM)	0.98	> 8
HCC1143 (breast, adherent, top dose 8 µM)	0.968	> 8
HCC1187 (breast, suspension, top dose 8 µM)	0.976	> 8
HCC1395 (breast, adherent, top dose 8 µM)	0.979	> 8
HCC1419 (breast, adherent, top dose 8 µM)	0.97	> 8
HCC1428 (breast, adherent, top dose 8 µM)	0.985	> 8
HCC1500 (breast, adherent, top dose 8 µM)	0.962	> 8
HCC1569 (breast, adherent, top dose 8 µM)	0.934	> 8

Cell Line	AUC	IC50 [µM]
HCC1806 (breast, adherent, top dose 8 µM)	0.975	> 8
HCC1937 (breast, adherent, top dose 8 µM)	0.965	> 8
HCC1954 (breast, adherent, top dose 8 µM)	0.898	> 8
HCC2157 (breast, suspension, top dose 8 µM)	0.985	> 8
HCC2218 (breast, suspension, top dose 8 µM)	0.957	> 8
HCC-15 (lung squamous cell carcinoma, adherent, top dose 8 µM)	0.972	> 8
HCC-44 (lung adenocarcinoma, adherent, top dose 4 µM)	0.982	> 4
HCC-56 (large intestine, adherent, top dose 8 µM)	0.927	> 8
HCC-78 (lung adenocarcinoma, adherent, top dose 8 µM)	0.971	> 8
HCC-366 (non-small cell lung carcinoma, adherent, top dose 8 µM)	0.988	> 8
HCC-827 (lung adenocarcinoma, adherent, top dose 8 µM)	0.917	> 8
HCT-15 (large intestine, adherent, top dose 8 µM)	0.987	> 8
HD-MY-Z (Hodgkin lymphoma, adherent, top dose 8 µM)	0.982	> 8
HDLM-2 (Hodgkin lymphoma, suspension, top dose 8 µM)	0.984	> 8
HDQ-P1 (breast, adherent, top dose 8 µM)	0.984	> 8
HEC-1 (endometrium, adherent, top dose 8 µM)	0.941	> 8
HGC-27 (stomach, adherent, top dose 8 µM)	0.972	> 8
HH (T-cell leukaemia, suspension, top dose 8 µM)	0.917	> 8
HL-60 (acute myeloid leukaemia, suspension, top dose 8 µM)	0.961	> 8
HLE (liver, adherent, top dose 4 µM)	0.97	> 4
HN (head and neck, adherent, top dose 8 µM)	0.987	> 8

Cell Line	AUC	IC50 [µM]
HO-1-u-1 (head and neck, adherent, top dose 8 µM)	0.988	> 8
HOP-62 (lung adenocarcinoma, adherent, top dose 8 µM)	0.982	> 8
HOS (osteosarcoma, adherent, top dose 8 µM)	0.958	> 8
HSC-2 (head and neck, adherent, top dose 8 µM)	0.988	> 8
HSC-39 (stomach, suspension, top dose 8 µM)	0.981	> 8
HT55 (large intestine, adherent, top dose 8 µM)	0.99	> 8
HT (B-cell lymphoma, suspension, top dose 8 µM)	0.983	> 8
HT-3 (cervix, adherent, top dose 8 µM)	0.987	> 8
HT-29 (large intestine, adherent, top dose 8 µM)	0.988	> 8
HT-115 (large intestine, adherent, top dose 8 µM)	0.991	> 8
HT-144 (melanoma, adherent, top dose 8 µM)	0.747	2.82
HT-1080 (fibrosarcoma, adherent, top dose 8 µM)	0.835	4.51
HT-1197 (bladder, adherent, top dose 8 µM)	0.903	> 8
HT-1376 (bladder, adherent, top dose 8 µM)	0.977	> 8
HUTU-80 (digestive system, adherent, top dose 8 µM)	0.484	0.457
HeLa (cervix, adherent, top dose 8 µM)	0.989	> 8
Hep 3B2_1-7 (liver, adherent, top dose 8 µM)	0.987	> 8
Hey (ovary, adherent, top dose 8 µM)	0.756	2.59
Hs633T (fibrosarcoma, adherent, top dose 8 µM)	0.742	2.1
Hs683 (glioma, adherent, top dose 8 µM)	0.963	> 8
Hs746T (stomach, adherent, top dose 8 µM)	0.979	> 8
